The other results are listed elsewhere or left out. Values were computed here from the reads of four pooled replicates and scatter widely.
These sequences were tested against T1, Pho4 (S. cerevisiae) (UniProt P07270) (assay: relative binding free energy (BET-seq); higher = weaker binding). Conditions: reference: library average.
T1 sequence: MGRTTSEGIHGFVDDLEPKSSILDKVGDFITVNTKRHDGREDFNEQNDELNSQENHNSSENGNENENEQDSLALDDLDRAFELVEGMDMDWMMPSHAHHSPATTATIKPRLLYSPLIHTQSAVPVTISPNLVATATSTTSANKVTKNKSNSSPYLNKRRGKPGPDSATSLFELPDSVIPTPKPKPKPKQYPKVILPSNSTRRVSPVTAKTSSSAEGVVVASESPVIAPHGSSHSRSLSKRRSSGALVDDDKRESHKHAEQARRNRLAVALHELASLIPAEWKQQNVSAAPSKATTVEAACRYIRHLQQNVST

Row | Sequence | relative binding free energy
1 | TGTCTCACGTGTTGGA | 0.19 kcal/mol
2 | GTCATCACGTGTAGAG | 0.26 kcal/mol
3 | GTAAGCACGTGGTACG | -0.2 kcal/mol
4 | GTGGGCACGTGAGCAT | 0.05 kcal/mol
5 | GCGTTCACGTGAGGTT | 0.4 kcal/mol
6 | TTGAGCACGTGTGAGA | 0.02 kcal/mol
7 | TTGATCACGTGGCATT | 0 kcal/mol
8 | TTCTGCACGTGGTTGT | -0.04 kcal/mol
9 | AATAACACGTGTGCTG | 0.04 kcal/mol
10 | ATTATCACGTGATGTT | 0.33 kcal/mol
11 | GTGTACACGTGTCGTT | 0.06 kcal/mol
12 | AGAAGCACGTGAGGGT | 0.08 kcal/mol
13 | CGGTACACGTGGGATT | -0.01 kcal/mol
14 | CTAGTCACGTGGTAGT | 0.03 kcal/mol
15 | AACTTCACGTGTGTTG | 0.27 kcal/mol
16 | AATTTCACGTGGGATA | 0.15 kcal/mol
17 | ATTAGCACGTGTGATA | -0.01 kcal/mol
18 | AATCTCACGTGGGTAG | 0.18 kcal/mol
19 | GTGATCACGTGGCTGG | 0.11 kcal/mol
20 | TTTCACACGTGTTAGT | 0.03 kcal/mol
21 | AGGGACACGTGGTATA | -0.08 kcal/mol
22 | GTGAGCACGTGGGTTA | -0.11 kcal/mol
23 | AAAATCACGTGTTATT | 0.07 kcal/mol
24 | ATTTGCACGTGATGTT | 0.04 kcal/mol
25 | GTTACCACGTGTTGGC | 0.13 kcal/mol

Row | Sequence | relative binding free energy
26 | ATGATCACGTGTAAAG | 0.17 kcal/mol
27 | AGGGTCACGTGAGTTT | 0.21 kcal/mol
28 | TGTCTCACGTGGGAGC | 0.19 kcal/mol
29 | TAGTTCACGTGTACTG | 0.34 kcal/mol
30 | CGGGTCACGTGGAAAG | 0.24 kcal/mol
31 | CGGGTCACGTGTGCTA | 0.15 kcal/mol
32 | TGCGTCACGTGATGAG | 0.31 kcal/mol
33 | TTGAGCACGTGGGGAA | -0.09 kcal/mol
34 | ATCTGCACGTGGTAGG | -0.15 kcal/mol
35 | GTGAACACGTGTGAGC | 0.22 kcal/mol
36 | ATGCTCACGTGGTTTG | 0.16 kcal/mol
37 | CGTTGCACGTGTGTGG | 0.03 kcal/mol
38 | TAGGTCACGTGAGTGT | 0.28 kcal/mol
39 | ATAGTCACGTGGTAGT | -0.03 kcal/mol
40 | GGCGTCACGTGAGTTG | 0.23 kcal/mol
41 | TGGCGCACGTGATGAT | 0.06 kcal/mol
42 | TCGTGCACGTGTATTG | -0.08 kcal/mol
43 | GATGTCACGTGGTGCA | 0.06 kcal/mol
44 | TCTCTCACGTGTTTTT | 0.25 kcal/mol
45 | CGGGGCACGTGGGGCG | -0.21 kcal/mol
46 | AGAGGCACGTGGGCAG | -0.33 kcal/mol
47 | TTTGGCACGTGGTAAC | -0.06 kcal/mol
48 | TTTCACACGTGGTGGC | 0.07 kcal/mol
49 | GTAGGCACGTGAGTAT | 0.28 kcal/mol
50 | GTGGACACGTGTGTTT | 0.09 kcal/mol

Row | Sequence | relative binding free energy
51 | TCGTACACGTGCTGTG | 0.09 kcal/mol
52 | ATCTACACGTGTAGGG | 0.1 kcal/mol
53 | GTTGGCACGTGTTGTC | 0.13 kcal/mol
54 | ATTTGCACGTGGTTAG | -0.02 kcal/mol
55 | GGACGCACGTGGTATG | -0.2 kcal/mol
56 | ATTGGCACGTGGTGGC | -0.09 kcal/mol
57 | TGTAGCACGTGCGTAT | -0.15 kcal/mol
58 | TGTTTCACGTGCGTGG | 0.12 kcal/mol
59 | GTGTGCACGTGGTCCG | -0.2 kcal/mol
60 | TGAGGCACGTGGTGTA | -0.11 kcal/mol
61 | TGAGTCACGTGCTGGT | 0.1 kcal/mol
62 | GAAGACACGTGTAGTT | 0.24 kcal/mol
63 | TTAAACACGTGTCTGT | -0.06 kcal/mol
64 | TTGCTCACGTGTTATA | 0.03 kcal/mol
65 | GACAACACGTGGGTGG | -0.07 kcal/mol
66 | TGGATCACGTGAGTGC | 0.34 kcal/mol
67 | GATTACACGTGGGTTA | -0.03 kcal/mol
68 | TATAACACGTGGTTAG | -0.11 kcal/mol
69 | GTAGTCACGTGTTGTA | 0.17 kcal/mol
70 | GGCGTCACGTGTGAGA | 0.23 kcal/mol
71 | GGTCTCACGTGTTTTT | 0.38 kcal/mol
72 | TTTCGCACGTGGGAGG | -0.11 kcal/mol
73 | TTCGTCACGTGGTGTC | 0.12 kcal/mol
74 | TTGTCCACGTGTGCGT | 0.04 kcal/mol
75 | TTTATCACGTGATATG | 0.27 kcal/mol

Row | Sequence | relative binding free energy
76 | TGAAGCACGTGTTAGG | -0.12 kcal/mol
77 | CGTCTCACGTGTGGTG | 0.11 kcal/mol
78 | CGTTTCACGTGCGATA | 0.41 kcal/mol
79 | ACGAACACGTGGTGGG | -0.12 kcal/mol
80 | CGAAGCACGTGAGTGG | 0.12 kcal/mol
81 | TTGGTCACGTGACGAT | 0.26 kcal/mol
82 | ATTCGCACGTGGGTGG | -0.3 kcal/mol
83 | ATTTTCACGTGCGTCT | 0.41 kcal/mol
84 | TTTGTCACGTGCATTT | 0.12 kcal/mol
85 | TTGGACACGTGCTGAT | 0.01 kcal/mol
86 | TCTGGCACGTGTGCTT | 0.01 kcal/mol
87 | GGGATCACGTGTAGTC | 0.13 kcal/mol
88 | TAGATCACGTGGGGTT | 0.06 kcal/mol
89 | GGGGGCACGTGGGCCC | -0.21 kcal/mol
90 | TGGACCACGTGTCTTG | 0.08 kcal/mol
91 | TGTCACACGTGTTGGG | 0 kcal/mol
92 | GGCAGCACGTGGCGTT | -0.06 kcal/mol
93 | GGCTTCACGTGAAGGG | 0.45 kcal/mol
94 | CCTGGCACGTGTGGGC | 0 kcal/mol
95 | TGATTCACGTGAAGCG | 0.4 kcal/mol
96 | CGTAGCACGTGTAGTA | -0.07 kcal/mol
97 | ATGAACACGTGAGAGG | 0.24 kcal/mol
98 | TGATGCACGTGAGGGG | 0.29 kcal/mol
99 | TTAGCCACGTGGTGTG | -0.19 kcal/mol
100 | TGTAGCACGTGTAAGA | 0.06 kcal/mol

Row | Sequence | relative binding free energy
101 | TGAATCACGTGTGTTG | 0.1 kcal/mol
102 | GTTATCACGTGTTTGG | 0.23 kcal/mol
103 | GGAGGCACGTGAAGCT | 0.17 kcal/mol
104 | ATGACCACGTGTATGT | 0.04 kcal/mol
105 | TTGGACACGTGTTATG | -0.01 kcal/mol
106 | TGACACACGTGAGTGT | 0.09 kcal/mol
107 | AGGGCCACGTGTAGTT | 0.09 kcal/mol
108 | GATGTCACGTGGGGGG | 0.14 kcal/mol
109 | CGCTGCACGTGGTTGT | -0.02 kcal/mol
110 | ATAGTCACGTGAGAAG | 0.25 kcal/mol
111 | CTGATCACGTGGGGTT | 0.04 kcal/mol
112 | GGTTCCACGTGGTGTC | 0.04 kcal/mol
113 | GTAGGCACGTGTTGCA | -0.1 kcal/mol
114 | GATTACACGTGGAGAT | 0.18 kcal/mol
115 | ACAGGCACGTGAGGGA | 0.13 kcal/mol
116 | TTAATCACGTGTTACT | 0.13 kcal/mol
117 | TACGTCACGTGATGTG | 0.11 kcal/mol
118 | GTGTACACGTGGGCAG | -0.07 kcal/mol
119 | TTTTTCACGTGGTACT | 0.12 kcal/mol
120 | TTGGGCACGTGTACAG | -0.25 kcal/mol
121 | GGGTTCACGTGGTGGC | 0.34 kcal/mol
122 | TGGGGCACGTGGCGTC | -0.3 kcal/mol
123 | GGATCCACGTGGGGTT | 0.08 kcal/mol
124 | GCGGACACGTGAGGGT | 0.39 kcal/mol
125 | AGAGTCACGTGGTGCA | -0.07 kcal/mol

Row | Sequence | relative binding free energy
126 | GTGTTCACGTGTGGCG | 0.29 kcal/mol
127 | CTTATCACGTGGTGAT | -0.03 kcal/mol
128 | TTGCTCACGTGAAGTA | 0.42 kcal/mol
129 | GCTGTCACGTGGGGTT | 0.09 kcal/mol
130 | TGGTTCACGTGCTGTA | 0.23 kcal/mol
131 | GCGGGCACGTGGTTAG | -0.15 kcal/mol
132 | TTACGCACGTGTAGCG | 0.03 kcal/mol
133 | GATTGCACGTGTTGTA | 0.07 kcal/mol
134 | CCTGTCACGTGGAGTT | 0.22 kcal/mol
135 | GTGGGCACGTGGAAAT | 0.16 kcal/mol
136 | AGCTTCACGTGGGCGT | 0.08 kcal/mol
137 | ATTTGCACGTGGAAAA | 0.13 kcal/mol
138 | TTAAGCACGTGTATGT | -0.03 kcal/mol
139 | AATGTCACGTGAGAGT | 0.29 kcal/mol
140 | GGAATCACGTGGGTGT | 0.09 kcal/mol
141 | GGGAGCACGTGGTGCC | -0.06 kcal/mol
142 | TGGTGCACGTGTGGGA | 0.06 kcal/mol
143 | GTAGTCACGTGGGGAC | 0.2 kcal/mol
144 | CACTGCACGTGAGGGG | 0.09 kcal/mol
145 | ACTTTCACGTGGGTGT | 0.16 kcal/mol
146 | CTTGTCACGTGGAGGA | 0 kcal/mol
